Data reported in the supplement of paper PMC8728848.
The other results are listed elsewhere or left out.

Columns and labels:
Assay in all cases: glycan array binding signal (z-score within array); higher = stronger binding
Details in all cases: glycan notation: IUPAC condensed, linker removed
[1] = target: GlcNAc(b1-4)GlcNAc(b1-4)GlcNAc(b1-4)GlcNAc(b1-4)GlcNAc(b1-4)GlcNAc
Summary of the method: (§1)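 Glycan array binding is given as a within-array Z-score, which can be read as non-binding when negative. The arrays, 3228 of them, came from the Consortium for Functional Glycomics database and were retained only where the protein sequence was available. Z-scores were averaged across arrays of the same protein sequence at different concentrations or buffers and across linkers.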

[2] = target: GlcNAc(b1-4)[GlcNAc(b1-6)]GalNAc
Summary of the method: as §1

[3] = target: GlcNAc(b1-6)Gal(b1-4)GlcNAc
Summary of the method: as §1

GlcNAc(b1-6)GalNAc = target: GlcNAc(b1-6)GalNAc
Summary of the method: as §1

Kdn(a2-3)Gal(b1-3)GlcNAc = target: Kdn(a2-3)Gal(b1-3)GlcNAc
Summary of the method: as §1

Kdn(a2-3)Gal(b1-4)GlcNAc = target: Kdn(a2-3)Gal(b1-4)GlcNAc
Summary of the method: as §1

[4] = target: Man(a1-2)Man(a1-2)Man(a1-3)Man
Summary of the method: as §1

[5] = target: Man(a1-2)Man(a1-2)Man(a1-3)[Man(a1-2)Man(a1-3)[Man(a1-2)Man(a1-6)]Man(a1-6)]Man(b1-4)GlcNAc(b1-4)GlcNAc
Summary of the method: as §1

[6] = target: Man(a1-2)Man(a1-2)Man(a1-3)[Man(a1-2)Man(a1-6)[Man(a1-3)]Man(a1-6)]Man(b1-4)GlcNAc(b1-4)GlcNAc
Summary of the method: as §1

[7] = target: Man(a1-2)Man(a1-2)Man(a1-6)[Man(a1-3)]Man
Summary of the method: as §1

Man(a1-2)Man(a1-3)Man = target: Man(a1-2)Man(a1-3)Man
Summary of the method: as §1

[8] = target: Man(a1-2)Man(a1-3)[Man(a1-2)Man(a1-6)]Man
Summary of the method: as §1

[9] = target: Man(a1-2)Man(a1-3)[Man(a1-3)[Man(a1-6)]Man(a1-6)]Man(b1-4)GlcNAc(b1-4)GlcNAc
Summary of the method: as §1

[10] = target: Man(a1-2)Man(a1-3)[Man(a1-6)]Man(a1-6)[Man(a1-2)Man(a1-3)]Man(b1-4)GlcNAc(b1-4)GlcNAc
Summary of the method: as §1

Man(a1-3)[Man(a1-6)]Man = target: Man(a1-3)[Man(a1-6)]Man
Summary of the method: as §1

[11] = target: Man(a1-3)[Man(a1-6)]Man(a1-6)[Man(a1-3)]Man(b1-4)GlcNAc(b1-4)GlcNAc
Summary of the method: as §1

[12] = target: Man(a1-3)[Man(a1-6)]Man(b1-4)GlcNAc(b1-4)GlcNAc
Summary of the method: as §1

Man(b1-4)GlcNAc = target: Man(b1-4)GlcNAc
Summary of the method: as §1

Neu5Ac(a2-3)Gal = target: Neu5Ac(a2-3)Gal
Summary of the method: as §1

[13] = target: Neu5Ac(a2-3)Gal(b1-3)GalNAc
Summary of the method: as §1

[14] = target: Neu5Ac(a2-3)Gal(b1-3)GalNAc(b1-3)Gal(a1-4)Gal(b1-4)Glc
Summary of the method: as §1

[15] = target: Neu5Ac(a2-3)Gal(b1-3)GalNAc(b1-4)[Neu5Ac(a2-3)]Gal(b1-4)Glc
Summary of the method: as §1

[16] = target: Neu5Ac(a2-3)Gal(b1-3)GalNAc6S
Summary of the method: as §1

[17] = target: Neu5Ac(a2-3)Gal(b1-3)GlcNAc
Summary of the method: as §1

[18] = target: Neu5Ac(a2-3)Gal(b1-3)GlcNAc(b1-3)Gal(b1-3)GlcNAc
Summary of the method: as §1

[19] = target: Neu5Ac(a2-3)Gal(b1-3)GlcNAc(b1-3)Gal(b1-4)GlcNAc
Summary of the method: as §1

[20] = target: Neu5Ac(a2-3)Gal(b1-3)GlcNAc6S
Summary of the method: as §1

[21] = target: Neu5Ac(a2-3)Gal(b1-3)[Fuc(a1-4)]GlcNAc
Summary of the method: as §1

[22] = target: Neu5Ac(a2-3)Gal(b1-3)[Fuc(a1-4)]GlcNAc(b1-3)Gal(b1-4)[Fuc(a1-3)]GlcNAc
Summary of the method: as §1

[23] = target: Neu5Ac(a2-3)Gal(b1-3)[Neu5Ac(a2-3)Gal(b1-4)]GlcNAc
Summary of the method: as §1

[24] = target: Neu5Ac(a2-3)Gal(b1-3)[Neu5Ac(a2-6)]GalNAc
Summary of the method: as §1

Neu5Ac(a2-3)Gal(b1-4)Glc = target: Neu5Ac(a2-3)Gal(b1-4)Glc
Summary of the method: as §1

[25] = target: Neu5Ac(a2-3)Gal(b1-4)GlcNAc
Summary of the method: as §1

[26] = target: Neu5Ac(a2-3)Gal(b1-4)GlcNAc(b1-3)Gal(b1-3)GlcNAc
Summary of the method: as §1

[27] = target: Neu5Ac(a2-3)Gal(b1-4)GlcNAc(b1-3)Gal(b1-4)GlcNAc
Summary of the method: as §1

[28] = target: Neu5Ac(a2-3)Gal(b1-4)GlcNAc(b1-3)Gal(b1-4)GlcNAc(b1-3)Gal(b1-4)GlcNAc
Summary of the method: as §1

B1: PEB3 Cj0289c (Campylobacter jejuni), Q9PIK7 (protein)
chain: MDVNLYGPGGPHTALKDIANKYSEKTGVKVNVNFGPQATWFEKAKKDADILFGASDQSALAIASDFGKDFNVSKIKPLYFREAIILTQKGNPLKIKGLKDLANKKVRIVVPEGAGKSNTSGTGVWEDMIGRTQDIKTIQNFRNNIVAFVPNSGSARKLFAQDQADAWITWIDWSKSNPDIGTAVAIEKDLVVYRTFNVIAKEGASKETQDFIAYLSSKEAKEIFKKYGWRE
glycan array binding signal (z-score) [1]: 0.159 | glycan array binding signal (z-score) [2]: -0.066 | glycan array binding signal (z-score) [3]: -0.319 | glycan array binding signal (z-score) (GlcNAc(b1-6)GalNAc): -0.441 | glycan array binding signal (z-score) (Kdn(a2-3)Gal(b1-3)GlcNAc): -0.34 | glycan array binding signal (z-score) (Kdn(a2-3)Gal(b1-4)GlcNAc): -0.263 | glycan array binding signal (z-score) [4]: 0.253 | glycan array binding signal (z-score) [5]: -0.256 | glycan array binding signal (z-score) [6]: -0.265 | glycan array binding signal (z-score) [7]: -0.192 | glycan array binding signal (z-score) (Man(a1-2)Man(a1-3)Man): -0.001 | glycan array binding signal (z-score) [8]: -0.277 | glycan array binding signal (z-score) [9]: -0.274 | glycan array binding signal (z-score) [10]: -0.25 | glycan array binding signal (z-score) (Man(a1-3)[Man(a1-6)]Man): -0.211 | glycan array binding signal (z-score) [11]: -0.392 | glycan array binding signal (z-score) [12]: 0.582 | glycan array binding signal (z-score) (Man(b1-4)GlcNAc): 0.207 | glycan array binding signal (z-score) (Neu5Ac(a2-3)Gal): -0.349 | glycan array binding signal (z-score) [13]: -0.392 | glycan array binding signal (z-score) [14]: -0.416 | glycan array binding signal (z-score) [15]: -0.335 | glycan array binding signal (z-score) [16]: -0.071 | glycan array binding signal (z-score) [17]: -0.32 | glycan array binding signal (z-score) [18]: -0.455 | glycan array binding signal (z-score) [19]: -0.441 | glycan array binding signal (z-score) [20]: -0.071 | glycan array binding signal (z-score) [21]: -0.368 | glycan array binding signal (z-score) [22]: -0.323 | glycan array binding signal (z-score) [23]: -0.423 | glycan array binding signal (z-score) [24]: -0.436 | glycan array binding signal (z-score) (Neu5Ac(a2-3)Gal(b1-4)Glc): -0.417 | glycan array binding signal (z-score) [25]: -0.45 | glycan array binding signal (z-score) [26]: -0.553 | glycan array binding signal (z-score) [27]: -0.454 | glycan array binding signal (z-score) [28]: -0.516
